Laboratory results: PubChem BioAssay AID686970 (National Center for Advancing Translational Sciences (NCATS), 2013)
Hit rate of the full screen: of about 360,000 compounds, about 6,000 (1.7%) were called active. This list was built around the results that the source calls inconclusive (neither active nor inactive); the mix of calls is not that of the screen. Calls come from the whole dose curve; as a rule, active = well fitted cell-killing curve with a large enough effect; inconclusive = small, poorly fitted or top-dose-only effect, or effect the other way; inactive = flat fitted curve, though single readings scatter. Potencies of inconclusive entries are left out as doubtful fits.

Experiment: qHTS for induction of synthetic lethality in tumor cells producing 2HG: qHTS for the HT-1080-NT fibrosarcoma cell line;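 note: NT is the 2HG producing partner of a matched IDH1 knockdown line; nearly all actives have a fitted effect of over 55% in size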;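 for activity, negative = less viability: 0% = DMSO-treated cells and -100% = media-only wells without cells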
Conditions: HT-1080-NT fibrosarcoma viability, CellTiter-Glo ATP luminescence, 48 h; activity, negative = less viability: at 46.1 µM (top of the series) unless noted
How it was run: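 HT-1080-NT; 750 cells/well; 5% FBS RPMI; 48 h compound, 37 degrees C; CellTiter-Glo luminescence; curve fitting and curve-class assignment.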
Potency is the fitted concentration of half-maximal effect; tags give direction and shape of the fitted curve.

Question: With `O=[N+]([O-])c1ccc(N=Cc2c(O)ccc3ccccc23)cc1` as the molecule, how does the Potency read?
Answer: The Potency was inconclusive [cytotoxic, full curve].

Question: For `COc1ccc(Br)cc1/C=N/NC(=O)c1cc(OC)c(OC)c(OC)c1`, which Potency is on record?
Answer: The Potency was inconclusive [cytotoxic, single point].

Question: Which Potency does the source give for `CCC(C)c1ccc(NC(=O)NCCN2CCCCC2)cc1` (stereo not given) here?
Answer: The Potency was inconclusive [cytotoxic, single point].

Question: For `Oc1ccc(Cc2ccccc2)c2cccnc12`, which Potency is on record?
Answer: The Potency was inconclusive [cytotoxic, full curve].

Question: For `O=Cc1s/c(=N\S(=O)(=O)c2ccccc2)n(CCCCl)c1Cl`, which Potency is on record?
Answer: Its Potency is active: 7.31 µM.

Question: With `COc1ccc(CCNc2nc3c(c(=O)n(C)c(=O)n3C)n2C)cc1OC` as the molecule, how does the Potency read?
Answer: The Potency was “inactive”.

Question: With `CC(=O)Nc1ccc(NC(=O)C2CCN(S(=O)(=O)c3cccc4nonc34)CC2)cc1` as the molecule, how does the Potency read?
Answer: The Potency was inconclusive [cytotoxic, single point].

Question: With `COc1ccc(-c2nc(-c3ccccn3)ncc2S(C)(=O)=O)cc1` as the molecule, how does the Potency read?
Answer: Its Potency is “inactive”.

Question: For `c1ccc(COc2ncnc3c2ncn3CCCN2CCN(Cc3cccc4ccccc34)CC2)cc1`, which Potency is on record?
Answer: Its Potency is active: 16.4 µM.

Question: With `COc1ccc(C2CC(c3cccs3)=NN2C(=O)CSC2=NN3CCCC(=O)N=C3S2)cc1` (stereo not given) as the molecule, how does the Potency read?
Answer: The Potency was “inactive”.

Question: With `COc1ccc(C(C)=O)cc1Cn1cnc2c(cnn2C)c1=O` as the molecule, how does the Potency read?
Answer: The Potency was “inactive”.

Question: For `COc1cccc(CNC(=O)C2CCN(c3nn4c(=O)cc(C)nc4s3)CC2)c1`, which Potency is on record?
Answer: The Potency was “inactive”.

Question: Which Potency does the source give for `COc1ccc(C(=O)/C=C/c2ccc(O)cc2)c(O)c1C/C=C(\C)CCC=C(C)C` here?
Answer: Its Potency is inconclusive [cytotoxic, single point].

Question: Which Potency does the source give for `CC(C)N(Cc1nc(-c2ccccc2)no1)C(=O)Cc1ccccc1` here?
Answer: The Potency was “inactive”.

Question: With `Cc1ccc(-c2cccc(CN3CCN(C4CCN(C(C)C)CC4)C(CCO)C3)c2)o1` (stereo not given) as the molecule, how does the Potency read?
Answer: Its Potency is inconclusive [cytotoxic, single point].

Question: For `COc1ccc(CCNc2ncnc3c2c(C)c(C)n3CCCN(C)C)cc1OC`, which Potency is on record?
Answer: The Potency was “inactive”.

Question: Which Potency does the source give for `COc1ccc(OCC(O)CN2C(=O)c3ccccc3C2=O)cc1` (stereo not given) here?
Answer: The Potency was inconclusive [rising, partial curve].

Question: With `CC1=C(C(=O)N(C)C)CC(CC(=O)NCc2cccc3ccccc23)C(=O)N1Cc1ccc(C(C)(C)C)cc1` (stereo not given) as the molecule, how does the Potency read?
Answer: Its Potency is inconclusive [cytotoxic, single point].

Question: With `Cc1ccc2nc(N(CCCN(C)C)C(=O)c3sc4ccccc4c3Cl)sc2c1` as the molecule, how does the Potency read?
Answer: Its Potency is inconclusive [cytotoxic, partial curve].

Question: Which Potency does the source give for `C#CC[N+]1(CC#Cc2ccccc2)CCCC1` here?
Answer: Its Potency is “inactive”.

Question: For `NC(=O)C1CCN(C(=O)c2ccc(NS(=O)(=O)/C=C/c3ccccc3)cc2)CC1`, which Potency is on record?
Answer: The Potency was “inactive”.

Question: For `Cc1cc2oc(=O)cc(CN3CCCCC3C)c2cc1C` (stereo not given), which activity, negative = less viability is on record?
Answer: The activity, negative = less viability was inconclusive: -4.06% [cytotoxic].

Question: With `CCn1c(N)[n+](CC(=O)Nc2ccc(SC(F)F)cc2)c2ccccc21` as the molecule, how does the Potency read?
Answer: The Potency was inconclusive [cytotoxic, single point].

Question: Which Potency does the source give for `COc1cccc(C(=O)/C=C/c2ccc(N3CCCCC3)c([N+](=O)[O-])c2)c1` here?
Answer: Its Potency is inconclusive [cytotoxic, single point].

Question: With `COc1cc(OC)cc(-c2sc3ccc(OC)cc3c2-c2ccc(OCCN3CCCCC3)cc2)c1` as the molecule, how does the Potency read?
Answer: The Potency was inconclusive [cytotoxic, partial curve].

Question: With `COC(=O)C1=C(Nc2ccc(C)cc2)C=C(C)C(C(=O)OC)C1c1ccc(F)cc1` (stereo not given) as the molecule, how does the Potency read?
Answer: The Potency was inconclusive [cytotoxic, partial curve].

Question: For `O[C@@H]1Cc2ccccc2O[C@H]1c1ccccc1`, which Potency is on record?
Answer: Its Potency is “inactive”.

Question: Which Potency does the source give for `CCN1CC2=C(OC(N)=C(C#N)C2c2ccccc2)/C(=C\c2ccccc2)C1` (stereo not given) here?
Answer: The Potency was inconclusive [cytotoxic, single point].

Question: Which Potency does the source give for `COc1cc(S(=O)(=O)Nc2ccc(Br)cc2)ccc1N` here?
Answer: The Potency was “inactive”.

Question: For `C[C@@H]1CN([C@@H](C)CO)C(=O)c2c(c3ccccc3n2C)-c2ccccc2CO[C@H]1CN(C)C(=O)[C@H](Cc1ccccc1)N(C)C`, which Potency is on record?
Answer: The Potency was inconclusive [cytotoxic, partial curve].

Question: For `COCCn1c(NC(=S)NC(=O)C23CC4CC(CC(C4)C2)C3)cc(=O)[nH]c1=O`, which Potency is on record?
Answer: Its Potency is inconclusive [cytotoxic, single point].

Question: With `Cc1cc(OCCCCCNCCO)cc(C)c1Cl` as the molecule, how does the Potency read?
Answer: The Potency was inconclusive [cytotoxic, single point].

Question: Which Potency does the source give for `COc1cc(C(O)c2nc(-c3csc4ccccc34)cs2)ccc1F` (stereo not given) here?
Answer: Its Potency is inconclusive [cytotoxic, single point].

Question: With `COc1ccc(-c2cc3nc(-c4ccccc4)cc(N4CCC5(CC4)OCCO5)n3n2)cc1` as the molecule, how does the Potency read?
Answer: Its Potency is “inactive”.

Question: For `COCCn1c(SCc2cc(C(C)=O)ccc2OC)nc2cc(Cl)ccc2c1=O`, which Potency is on record?
Answer: Its Potency is “inactive”.

Question: Which Potency does the source give for `CCCCC[C@H](C)N1C[C@H](COCc2ccccc2)Oc2cc(N3CCC[C@@H]3CO)ccc2S1(=O)=O` here?
Answer: Its Potency is inconclusive [cytotoxic, single point].

Question: For `CCN1CCN(CC(=O)Nc2ccc(Cl)c(S(=O)(=O)N(C)C)c2)CC1`, which activity, negative = less viability is on record?
Answer: Its activity, negative = less viability is inconclusive: 30.4%.

Question: With `CCn1cc(C(=O)O)c(=O)c2cnc(N3CCN(C(=S)NC(=O)c4ccccc4)CC3)nc21` as the molecule, how does the Potency read?
Answer: Its Potency is inconclusive [rising, single point].

Question: Which Potency does the source give for `CC(OC(=O)C1CCN(c2ccc(C(F)(F)F)cn2)CC1)C(=O)c1ccccc1` (stereo not given) here?
Answer: Its Potency is “inactive”.

Question: With `O=C(c1ccc(Cl)c(Cl)c1)N1CCC(=O)N(C(COCc2ccccc2)Cc2ccccc2)CC1` (stereo not given) as the molecule, how does the Potency read?
Answer: The Potency was inconclusive [cytotoxic, single point].

Question: For `CC(C)NC(=O)C1(C)CCN1C(=O)c1ccccc1F` (stereo not given), which Potency is on record?
Answer: The Potency was inconclusive [rising, single point].

Question: For `COC(=O)CNC(c1ccccc1)c1cc(Br)ccc1NC(=O)OCc1ccccc1` (stereo not given), which Potency is on record?
Answer: Its Potency is “inactive”.

Question: For `COCCCNC(=O)c1ccc2sc(C3=C[C@@H](O)[C@@H](O)[C@@H](CO)O3)nc2c1`, which Potency is on record?
Answer: The Potency was inconclusive [rising, single point].

Question: Which Potency does the source give for `O=C(Cn1cnc2sc(-c3ccccc3)cc2c1=O)NCc1ccccc1` here?
Answer: The Potency was active: 7.94 µM.

Question: With `CS(=O)(=O)c1ccc2nc(NC(=O)Nc3cccc(Cl)c3)sc2c1` as the molecule, how does the Potency read?
Answer: Its Potency is inconclusive [cytotoxic, full curve, poor fit].
